The values that follow come from the antibiotic and cytotoxicity screens of Wong et al. (2023).

This is one part of the list.

The test has as its system HSkMC (human skeletal muscle cells). In words: cytotoxicity call (relative viability < 0.9). The following applies: 10 µM.
On to `CC(C)NC(=O)N[C@@H]1C=C[C@H](CC(=O)NCCCN(C)C)O[C@@H]1CO`, for which the cytotoxicity call is “inactive”.

Consider `C[C@H](O)C#Cc1ccc2c(c1)O[C@H](CN(C)C)[C@H](C)CN([C@@H](C)CO)S2(=O)=O`, for which the cytotoxicity call is “inactive”.

For the molecule `NC(=O)c1ccc(CN2CCOCC2)cc1`, the cytotoxicity call is “inactive”.

Consider `O=C(O)C[C@@H](C(=O)O)[C@H](O)c1ccccc1`, for which the cytotoxicity call is “inactive”.

Regarding `Cc1noc(C)c1NC(=O)N[C@H]1CC[C@H](CC(=O)N2CCN(C)CC2)O[C@H]1CO`, the cytotoxicity call was “inactive”.

Take `C[C@@H]1CN([C@H](C)CO)C(=O)c2c(c3ccccc3n2C)-c2ccccc2CO[C@H]1CN(C)Cc1ccccc1`: the cytotoxicity call is “active”.

Turning to `COCC(=O)N1[C@H](C(=O)N2CCN(C)CC2)[C@@H](CO)[C@@H]2Cn3c(ccc(C4=CCCCC4)c3=O)[C@@H]21`, the cytotoxicity call was “inactive”.

For `Cc1noc(C)c1NC(=O)Nc1ccc2c(c1)C(=O)N([C@H](C)CO)C[C@H](C)[C@H](CN(C)S(=O)(=O)c1cn(C)cn1)O2`, the cytotoxicity call is “inactive”.

In the case of `CO[C@H]1CN(C)C(=O)c2cc(NC(=O)c3ccccc3)ccc2OC[C@H](C)N(C(=O)CN(C)C)C[C@@H]1C`, the cytotoxicity call is “inactive”.

As for `C[C@@H]1CN([C@@H](C)CO)S(=O)(=O)c2ccc(-c3ccncc3)cc2O[C@H]1CN(C)Cc1ccc(Oc2ccccc2)cc1`, the cytotoxicity call was “inactive”.

In the case of `O=C(O)COc1nn(Cc2ccccc2)c2ccccc12`, the cytotoxicity call is “inactive”.

As for `CC(C)NC(=O)Nc1ccc2c(c1)C(=O)N([C@H](C)CO)C[C@@H](C)[C@H](CN(C)S(C)(=O)=O)OCCCC[C@H](C)O2`, the cytotoxicity call was “inactive”.

As for `COc1cccc(NC(=O)C[C@H]2CC[C@@H]3[C@@H](COc4ccc(NC(=O)C5CCOCC5)cc4C(=O)N3C)O2)c1`, the cytotoxicity call was “inactive”.

As for `NNC(=O)CCCCCCC(=O)NO`, the cytotoxicity call was “inactive”.

Consider `CCOC(=O)/C(C)=N\O`, for which the cytotoxicity call was “inactive”.

As for `CO[C@H]1CN(C)C(=O)c2ccc(NC(=O)CC(F)(F)F)cc2OC[C@@H](C)N(S(=O)(=O)c2cn(C)cn2)C[C@@H]1C`, the cytotoxicity call is “inactive”.

For the molecule `C[C@@H]1CN([C@H](C)CO)C(=O)c2cccc(NC(=O)CCCCCC(=O)Nc3ccccc3N)c2O[C@H]1CN(C)C(=O)Nc1ccc(C(F)(F)F)cc1`, the cytotoxicity call is “inactive”.

Consider `C[C@@H]1CN([C@H](C)CO)C(=O)Cc2cc(NC(=O)Cn3cnnn3)ccc2O[C@@H]1CN(C)S(=O)(=O)c1ccc(Cl)cc1`, for which the cytotoxicity call is “inactive”.

Regarding `CC(C)NC(=O)Nc1ccc2c(c1)C(=O)N(C)[C@@H]1CC[C@H](CC(=O)NCc3ccc(F)cc3)O[C@H]1CO2`, the cytotoxicity call is “inactive”.

Take `Cc1ccc(S(=O)(=O)Nc2ccc3c(c2)C(=O)N([C@@H](C)CO)C[C@@H](C)[C@@H](CN(C)C(=O)Cc2ccccc2)OCCCC[C@H](C)O3)cc1`: the cytotoxicity call was “inactive”.

With `C[C@H]1CCCCO[C@@H](CN(C)S(=O)(=O)c2ccccc2)[C@@H](C)CN([C@@H](C)CO)C(=O)c2cc(NC(=O)c3ccccc3)ccc2O1`, the cytotoxicity call is “inactive”.

For `O=C(C[C@@H]1CC[C@H]2[C@@H](COC[C@H](O)CN2C(=O)Nc2cccc(Cl)c2)O1)NCCCN1CCOCC1`, the cytotoxicity call is “inactive”.

Take `CC(=O)N(C)C[C@@H]1Oc2ncc(C#CC(C)(C)O)cc2C(=O)N([C@H](C)CO)C[C@H]1C`: the cytotoxicity call is “inactive”.

`C[C@H](CO)N1C[C@H](C)[C@H](CN(C)C(=O)NC2CCCCC2)OCCCC[C@H](C)Oc2ccc(NC(=O)Cc3ccccc3)cc2C1=O`: the cytotoxicity call is “inactive”.

Take `C[C@H](CO)N1C[C@H](C)[C@@H](CN(C)Cc2ccccc2)Oc2c(NC(=O)c3ccc(-c4nccs4)cc3)cccc2C1=O`: the cytotoxicity call was “inactive”.

On to `C[C@H](CO)N1C[C@H](C)[C@@H](CN(C)C(=O)Nc2cccc3ccccc23)Oc2ccc(NC(=O)C3CCCCC3)cc2CC1=O`, for which the cytotoxicity call was “inactive”.

Consider `C[C@H](CO)N1C[C@H](C)[C@H](CN(C)Cc2ccc(Cl)c(Cl)c2)Oc2c(NS(=O)(=O)c3ccc(F)cc3)cccc2C1=O`, for which the cytotoxicity call is “inactive”.

With `C[C@H]1COC(=O)[C@@H](NC(=O)OCC2c3ccccc3-c3ccccc32)CC/C=C/C[C@H](CC(=O)N(CCOC(=O)NCCCCCC(=O)NO)Cc2ccccc2)C(=O)N1`, the cytotoxicity call is “inactive”.

For the molecule `Cc1ccc(S(=O)(=O)Nc2ccc3c(c2)CC(=O)N([C@H](C)CO)C[C@@H](C)[C@@H](CN(C)S(=O)(=O)c2cccs2)O3)cc1`, the cytotoxicity call is “inactive”.

Consider `CN1C(=O)CC(C)(c2ccccc2)C1=O` (stereo not given), for which the cytotoxicity call is “inactive”.

As for `O=C(O)c1cc(O)ccc1O`, the cytotoxicity call was “inactive”.

Consider `COC(=O)C1=CO[C@@H](O[C@H]2O[C@@H](CO)[C@@H](O)[C@@H](O)[C@@H]2O)[C@@H]2C(CO)=C[C@H](O)[C@H]12`, for which the cytotoxicity call is “inactive”.

Turning to `COCCN1C(=O)C2=C(C1=O)[C@H]1N(C)c3ccccc3[C@@]13C[C@@H](CO)N(C(C)=O)C3=N2`, the cytotoxicity call is “inactive”.

`CC(C)NC(=O)NCC[C@H]1CC[C@H](NC(=O)CN(C)C)[C@@H](CO)O1`: the cytotoxicity call is “inactive”.

Turning to `C[C@H]1CN([C@@H](C)CO)C(=O)Cc2cc(NC(=O)CCC(F)(F)F)ccc2O[C@@H]1CN(C)Cc1ccc(Oc2ccccc2)cc1`, the cytotoxicity call is “inactive”.

For the molecule `C[C@@H]1CN([C@@H](C)CO)C(=O)c2cc(NC(=O)CCC(F)(F)F)ccc2O[C@@H]1CN(C)C(=O)Nc1cccc2ccccc12`, the cytotoxicity call is “inactive”.

With `O=C(C[C@@H]1C[C@@H]2c3cc(NS(=O)(=O)c4ccc(F)cc4)ccc3O[C@@H]2[C@H](CO)O1)NCc1cccnc1`, the cytotoxicity call is “inactive”.

`C[C@H]1CN([C@@H](C)CO)S(=O)(=O)c2ccc(-c3cccc(C#N)c3)cc2O[C@@H]1CN(C)C(=O)c1ccncc1`: the cytotoxicity call was “inactive”.

For `C[C@@H]1CN([C@H](C)CO)C(=O)c2cc(NC(=O)Nc3ccc(C(F)(F)F)cc3)ccc2O[C@H]1CN(C)S(C)(=O)=O`, the cytotoxicity call was “inactive”.

For `COc1ccc(S(=O)(=O)N2C[C@H](O)COC[C@H]3O[C@H](CC(=O)NCCCN4CCOCC4)CC[C@@H]32)cc1`, the cytotoxicity call was “inactive”.
